The campaign covered roughly 310,000 compounds. About 2,200 (0.71%) showed an effect of 50% or more. The effect is printed as a negative number. The list shows a part of the results.
Each molecule was assayed against human ether-à-go-go-related gene (hERG) potassium channel (human, UniProt Q12809) (assay: primary screen, population patch clamp on CHO cells stably expressing hERG).
human ether-à-go-go-related gene (hERG) potassium channel, sequence (Q12809 whole entry, looked up): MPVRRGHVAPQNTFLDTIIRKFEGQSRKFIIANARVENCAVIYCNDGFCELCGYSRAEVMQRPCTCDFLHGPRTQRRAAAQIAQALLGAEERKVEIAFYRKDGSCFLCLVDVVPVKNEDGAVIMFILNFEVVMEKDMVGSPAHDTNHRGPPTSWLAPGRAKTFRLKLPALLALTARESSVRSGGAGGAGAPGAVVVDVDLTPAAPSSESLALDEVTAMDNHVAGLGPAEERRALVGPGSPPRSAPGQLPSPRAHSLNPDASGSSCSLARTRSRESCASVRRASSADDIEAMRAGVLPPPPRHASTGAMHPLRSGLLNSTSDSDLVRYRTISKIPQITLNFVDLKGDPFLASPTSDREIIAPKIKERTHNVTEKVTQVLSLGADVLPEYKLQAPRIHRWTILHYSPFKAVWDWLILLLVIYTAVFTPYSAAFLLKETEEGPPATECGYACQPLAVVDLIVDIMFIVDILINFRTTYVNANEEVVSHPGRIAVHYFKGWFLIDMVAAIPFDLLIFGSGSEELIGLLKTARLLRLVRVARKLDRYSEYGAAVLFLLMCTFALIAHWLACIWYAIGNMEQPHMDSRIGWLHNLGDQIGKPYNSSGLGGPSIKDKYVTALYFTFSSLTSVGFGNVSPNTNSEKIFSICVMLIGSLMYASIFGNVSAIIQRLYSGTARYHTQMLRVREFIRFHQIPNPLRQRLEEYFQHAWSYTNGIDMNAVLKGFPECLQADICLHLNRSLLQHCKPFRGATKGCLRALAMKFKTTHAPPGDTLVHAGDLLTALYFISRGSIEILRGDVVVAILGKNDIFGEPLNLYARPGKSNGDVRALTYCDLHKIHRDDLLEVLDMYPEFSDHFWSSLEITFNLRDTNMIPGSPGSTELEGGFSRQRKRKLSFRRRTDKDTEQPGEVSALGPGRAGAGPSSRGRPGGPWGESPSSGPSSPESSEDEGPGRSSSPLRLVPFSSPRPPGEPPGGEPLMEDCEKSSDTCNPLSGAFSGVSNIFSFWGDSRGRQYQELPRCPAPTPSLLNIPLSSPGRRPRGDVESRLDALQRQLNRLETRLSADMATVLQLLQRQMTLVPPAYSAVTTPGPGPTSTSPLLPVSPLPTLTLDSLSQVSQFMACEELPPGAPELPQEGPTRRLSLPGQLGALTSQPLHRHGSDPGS

In order of rising “hERG current change (%, negative = inhibition) at 1uM” value:
1. Cc1ccc(CNC(=O)CSc2nc3c(sc4ccccc43)c(=O)n2CCCN2CCCC2)cc1  -57.9%
2. CCOC(=O)c1cccc(NC(=O)CN2CCN(c3ccc(OC)cc3)CC2)c1  -8.34%
3. O=C(COc1ccc([N+](=O)[O-])cc1)Nc1ccc2c(c1)nc1n2CCOC1  -8.12%
4. CC(C)c1cc(C(=O)N2CCCC(CCC(=O)N3CCN(c4ccccn4)CC3)C2)no1 (centres unmarked)  -6.96%
5. Cc1cc(C(=O)N2CCN(C/C=C/c3ccccc3)CC2)cs1  -6.41%
6. Cc1ccc(C)c(N2C(=O)CC(N3CCN(Cc4ccc5c(c4)OCO5)CC3)C2=O)c1 (centres unmarked)  -6.05%
7. N/C(=N\S(=O)(=O)c1ccccc1)c1ccc([N+](=O)[O-])cc1  -4.75%
8. O=C(OCC(=O)N1CCN(C(=O)c2ccco2)CC1)c1ccccc1OCc1ccccc1  -3.06%
9. COc1ccc(S(=O)(=O)N2CCCC(C(=O)NCC3CCCO3)C2)cc1C (centres unmarked)  -0.826%
10. COC(=O)c1ccc(CN2CCCC(CO)(Cc3ccccc3F)C2)cc1 (centres unmarked)  -0.373%
11. COn1c(-c2ccccc2)nc2ccc(Cl)cc21  -0.278%
12. CCCN(CCC)C(=O)CSc1nc2ccsc2c(=O)n1NC(=O)c1ccccc1  0.568%
13. CCc1nnc(NC(=O)CSc2nc3cc4c(cc3cc2CC)OCCO4)s1  1.97%
14. COC(=O)c1ccc(NC(=S)Nc2cccc(C)n2)cc1  3.31%
15. Cc1ccc(C(=O)OCC(=O)N2C(C)CCCC2C)cc1S(=O)(=O)N1CCOCC1 (centres unmarked)  3.41%
16. COC(=O)C(O)(NC(=O)OCc1ccccc1)C(F)(F)F (centres unmarked)  4.17%
17. O=C(Nc1ccc(Br)cc1)c1cccc(N2C(=O)C3CCCCC3C2=O)c1 (centres unmarked)  4.31%
18. Cc1nn2c(=O)cc(CSc3ccccc3NC(=O)c3ccccc3)nc2s1  4.5%
19. Cc1nc2ccccc2c(=O)n1-c1ccccc1[N+](=O)[O-]  5.38%
20. CN1CCN(C(=O)c2cc(-c3cccc(Cl)c3)on2)CC1  5.71%
21. O=C(Nc1ccccc1)/C(=C/c1ccc([N+](=O)[O-])cc1)NC(=O)c1ccco1  5.78%
22. CN(C)CCCN1C(=O)CSC1c1ccccc1.Cl (centres unmarked)  5.79%
23. CC(C(=O)NC1CC(C)(C)NC(C)(C)C1)c1ccc([N+](=O)[O-])cc1 (centres unmarked)  6.13%
24. CCN(CC)S(=O)(=O)c1cccc(C(=O)Oc2cccnc2)c1  6.69%
25. COc1ccccc1NS(=O)(=O)c1cc(NC(=O)C2=NNC(=O)CC2)ccc1C  6.92%
26. Oc1ccc(Br)cc1/C=N/n1c(COc2ccccc2)n[nH]c1=S  7.57%
27. CCCCN(C(=O)C(C)(C)Oc1ccc(Cl)cc1)c1c(N)n(CCC)c(=O)[nH]c1=O  7.71%
28. CCS(=O)(=O)C(C)(CCl)C(=O)Nc1ccc(C(=O)OC)cc1 (centres unmarked)  7.99%
29. Cc1nc2cc(-c3ccsc3-n3c(C)ccc3C)[nH]n2c(=O)c1Cl  8.31%
30. C[C@H]1CN=C(Nc2ccccc2)N1CC1CCCCC1  8.66%
31. Cc1ccc(S(=O)(=O)N2CCOCC2)cc1NC(=O)CSc1ncccn1  8.69%
32. COc1ccc(C(C)(C)C)cc1NC(=O)CN1C(=O)C(=O)N(Cc2ccco2)C1=O  9.33%
33. COc1ccc(S(=O)(=O)N2CCN=C2SCc2cccc(F)c2)cc1  9.72%
34. CCN(CC(=O)Nc1ccccc1C(F)(F)F)C(=O)CN1C(=O)NC2(CCCCC2)C1=O  9.72%
35. CCOc1ccc2c(c1)c(N=NC(N)=S)c(O)n2C  9.76%
36. CCOCCCNc1nc2c(C)cccn2c(=O)c1/C=C1\SC(=S)N(C(C)CC)C1=O (centres unmarked)  10.1%
37. COc1ccc(N2CCN(C(CNC(C)=O)c3ccco3)CC2)cc1 (centres unmarked)  10.2%
38. Cc1ccc(NC(=S)NC(NC(=O)C(C)(C)C)C(Cl)(Cl)Cl)c(C)c1 (centres unmarked)  10.3%
39. CCCN1CCN(C(=O)c2noc3c2COc2ccc(C)cc2-3)CC1  10.5%
40. CCCCn1c(N)c(N(CCOC)C(=O)CCCc2nc3ccccc3c(=O)[nH]2)c(=O)[nH]c1=O  10.7%
41. Nc1nnc(SCC(=O)N2CCc3ccccc3C2)s1  10.8%
42. CCC(C)(C)C1CCc2c(sc(NC(=O)c3ccccc3C(=O)O)c2C#N)C1 (centres unmarked)  11.6%
43. CC(=O)Nc1ccc(S(=O)(=O)NC2(C(F)(F)F)C(=O)Nc3c2c(=O)[nH]c(=O)n3Cc2ccccc2)cc1 (centres unmarked)  11.7%
44. O=C1CC(=O)N(c2cccc(F)c2)N1  11.8%
45. CCN(c1ccccc1)S(=O)(=O)c1ccc2c(c1)N(C(C)=O)CCO2  12%
46. CNS(=O)(=O)c1ccc(NC(=S)Nc2ccc3c(c2)OCO3)cc1  12%
47. CCOC(=O)c1sc(-c2ccccc2)cc1N  12.3%
48. NC(=O)C1CCN(Cc2ccc(OCc3ccccc3)cc2)CC1.O=C(O)C(=O)O  12.4%
49. Cc1ccc(-c2nc(C3CCCN(S(=O)(=O)c4ccc(C)cc4)C3)no2)cc1 (centres unmarked)  12.4%
50. CC(Sc1nc2ccccc2c(=O)[nH]1)C(=O)O (centres unmarked)  12.6%
51. O=C(CCC(=O)c1cccs1)OCc1nc2ccccc2s1  12.6%
52. COc1ccc(-n2c(C)c(C)c3c(N)ncnc32)cc1  13.3%
53. CCCC1=[N+](CC(=O)c2ccccc2)CCn2c(C)ccc21.[Br-]  14%
54. COCCOC(=O)c1[nH]c2c(c1C)C(=O)CC(c1cc(OC)c(OC)c(OC)c1)C2 (centres unmarked)  14.1%
55. CC(=O)Nc1ccc(C(C#N)c2ccccc2)cc1 (centres unmarked)  14.6%
56. Cc1onc(-c2ccccc2)c1-c1n[nH]c(=S)n1-c1ccccc1  16.4%
